# Reference: PMC4336329 (PLoS ONE, 2015)
# Hit rate of the full screen: of about 310,000 compounds, about 14,000 (4.5%) showed an effect of 50% or more. The effect is printed as a negative number. The list shows a part of the results.
# Target: human ether-à-go-go-related gene (hERG) potassium channel (human, UniProt Q12809)
# Assay: primary screen, population patch clamp on CHO cells stably expressing hERG
# 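Further: peak tail current of the secondary pulse compared with the same well before compound.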
# Sequence of human ether-à-go-go-related gene (hERG) potassium channel (Q12809 whole entry, looked up): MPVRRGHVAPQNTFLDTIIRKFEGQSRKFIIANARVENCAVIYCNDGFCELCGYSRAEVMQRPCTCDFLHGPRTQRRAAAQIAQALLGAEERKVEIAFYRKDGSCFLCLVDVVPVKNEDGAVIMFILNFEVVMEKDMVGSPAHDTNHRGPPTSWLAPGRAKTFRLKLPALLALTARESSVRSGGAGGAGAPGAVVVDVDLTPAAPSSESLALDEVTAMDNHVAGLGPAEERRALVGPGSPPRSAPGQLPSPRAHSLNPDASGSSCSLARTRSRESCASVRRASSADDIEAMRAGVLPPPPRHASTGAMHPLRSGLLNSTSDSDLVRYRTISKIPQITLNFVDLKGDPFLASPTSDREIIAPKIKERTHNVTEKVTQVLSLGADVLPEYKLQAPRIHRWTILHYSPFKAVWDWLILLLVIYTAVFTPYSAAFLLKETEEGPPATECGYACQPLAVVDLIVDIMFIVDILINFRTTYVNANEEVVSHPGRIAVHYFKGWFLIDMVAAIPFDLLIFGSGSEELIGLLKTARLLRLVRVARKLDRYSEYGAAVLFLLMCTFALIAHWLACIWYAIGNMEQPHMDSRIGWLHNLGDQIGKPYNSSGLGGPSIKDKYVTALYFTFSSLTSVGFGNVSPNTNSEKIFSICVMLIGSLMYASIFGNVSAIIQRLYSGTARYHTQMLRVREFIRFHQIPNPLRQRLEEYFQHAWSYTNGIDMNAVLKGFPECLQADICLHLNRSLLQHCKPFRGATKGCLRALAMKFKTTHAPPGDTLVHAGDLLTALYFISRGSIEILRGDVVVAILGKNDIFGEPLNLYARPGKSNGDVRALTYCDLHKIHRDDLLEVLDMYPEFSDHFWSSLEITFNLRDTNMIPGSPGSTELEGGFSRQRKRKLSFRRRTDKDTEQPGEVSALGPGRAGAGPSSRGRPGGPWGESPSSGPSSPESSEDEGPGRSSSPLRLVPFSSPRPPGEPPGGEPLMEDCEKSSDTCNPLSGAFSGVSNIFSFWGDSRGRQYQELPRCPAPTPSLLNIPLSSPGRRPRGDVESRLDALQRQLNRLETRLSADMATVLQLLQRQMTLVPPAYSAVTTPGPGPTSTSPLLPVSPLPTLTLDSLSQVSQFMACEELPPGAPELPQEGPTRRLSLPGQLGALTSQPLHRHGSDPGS
row,SMILES,"hERG current change (%, negative = inhibition) at 10uM"
1,CC(=O)N1c2ccc(S(=O)(=O)N3CCCC3)cc2CC1C(=O)NCc1ccccc1F (stereo not shown),11.2%
2,O=C(CSc1nc2ccccc2s1)Nc1ccc2c(c1)oc1ccccc12,4.02%
3,COc1ccc(-n2ncc3c2CC(C)(C)CC3NC(=O)CCc2c(C)noc2C)cc1 (stereo not shown),-21.7%
4,Cc1nc(SCC(=O)Nc2ccccc2Cl)c2c(C)c(C)sc2n1,9.21%
5,COc1cc(OC)c(CNC2CCCCCC2)cc1Br,-1.25%
6,COc1cc(/C=N/O)cc(Br)c1OCC(=O)NCc1ccccc1,-27%
7,N#C/C(C(=O)N1CCOCC1)=C1/SC(Cc2ccccc2)C(=O)N1c1ccccc1 (stereo not shown),-13.6%
8,Cc1cccc(NC(=O)C2CCCN(S(=O)(=O)c3ccc4c(c3)oc(=O)n4C)C2)c1 (stereo not shown),-18.3%
9,CC(C)OC(=O)c1cc(C(=O)c2cc(Cl)ccc2O)coc1=N,13.3%
10,CCOc1cc(CNc2ccc(N(C)C)cc2)cc(Br)c1OCC(=O)NC(C)(C)C,-17%
11,COc1cccc(NC(=O)N2CCCC2C(=O)NCc2ccccc2F)c1 (stereo not shown),-4.14%
12,CCOCC(=O)Nc1nc2ccc(C)cc2s1,-4.98%
13,CSc1ccccc1NC(=O)Cn1nc([N+](=O)[O-])cc1C,6.48%
14,CC(C)c1ccc(NC(=O)COc2ccc(F)cc2C(=O)c2cnn(-c3ccccc3)c2)cc1,5.96%
15,Cc1noc(C)c1CSc1nnc(-c2ccccc2)n1N,6.27%
16,CCN1/C(=C2\C(=O)N(C)C(=S)N2C)C=Cc2ccccc21,9.44%
17,O=C(NC1CCCC1)C1CCC(CNS(=O)(=O)c2ccc(F)cc2)CC1 (stereo not shown),-6.07%
18,CCOC(=O)CSc1nc2ccc(Nc3nc(N4CCOCC4)nc(N4CCOCC4)n3)cc2s1,-0.709%
19,CC(CC(=O)N1CCN(S(=O)(=O)c2ccccc2)CC1)n1cncn1 (stereo not shown),20.1%
20,COc1ccccc1/C=N/NC(=O)c1cccc(OC(F)(F)C(F)F)c1,-9.51%
21,Cc1ccc(CSCCNC(=O)CN(c2ccc(F)cc2)S(C)(=O)=O)cc1,12.4%
22,CN1C(=O)CC(N2CCC(C(N)=O)(N3CCCCC3)CC2)C1=O (stereo not shown),1.9%
23,CC(=O)Nc1ccccc1S(=O)(=O)CC1CC1(Cl)Cl (stereo not shown),13.1%
24,Oc1c(Br)cc(Cl)cc1C=Nc1ccc(N2CCOCC2)cc1,19.6%
25,CSc1nnnn1-c1ccc(Cl)cc1,-0.432%
26,Cc1ccc2[nH]c(=O)c(CN(CCCN3CCOCC3)C(=O)Nc3cccc(Cl)c3)cc2c1,-32.4%
27,COc1ccc(C(=O)C2CCCN(S(=O)(=O)c3cccnc3)C2)c(C)c1 (stereo not shown),-1.1%
28,COc1ccc(/C=C(\NC(=O)c2ccccc2)C(=O)OCC2CCCN3CCCCC23)cc1OC (stereo not shown),-40.7%

row,SMILES,"hERG current change (%, negative = inhibition) at 10uM"
1,CC(C)COC(=O)N1C[C@H](O)C[C@H]1C(=O)Nc1ccc(Cl)cc1,14.9%
2,COC(=O)CSc1nnc(C)n1-c1ccc(C)cc1,8.35%
3,O=C(CN1CCOCC1)c1ccc2cc[nH]c2c1,8.82%
4,COc1ccc(C2(c3ccc(OC)cc3)NC(=O)N(CC(=O)N(C)C)C2=O)cc1,13.7%
5,CC(N)Cc1ccccc1Sc1ccc(O)cc1.O=C(O)C(=O)O (stereo not shown),-35.5%
6,Cl.Nn1cnnc1N/N=C/c1ccccc1C(F)(F)F,32.8%
7,COc1ccc(NS(=O)(=O)c2cc(NC(=O)c3ccc(=O)[nH]c3)ccc2C)cc1,15.1%
8,CCc1c(C(=O)NCCc2ccc(OC)c(OC)c2)[nH]c(C)c1C(C)=O,6.35%
9,Cc1ccccc1-c1nn(-c2ccc(F)cc2F)cc1CNCC(C)O (stereo not shown),-8.07%
10,CC(C)[C@H](NS(=O)(=O)c1ccccc1)C(=O)OCn1nnc2ccccc2c1=O,0.657%
11,COc1ccccc1CNC(=O)c1ccc(NS(=O)(=O)c2c(C)noc2C)cc1,-5.41%
12,O=C(c1ccncc1)c1ccc(N2CCN(C3CC(=O)N(Cc4ccccc4)C3=O)CC2)cc1 (stereo not shown),-76.2%
13,COc1ccccc1CCNS(=O)(=O)c1cc2c3c(c1)C(C)C(=O)N3CCC2 (stereo not shown),-8.01%
14,O=C(c1ccco1)N1CCN(S(=O)(=O)c2ccc(C3CCCCC3)cc2)CC1,4.54%
15,COc1ccc(C(=O)O/N=C(\N)c2ccc(OC)c(OC)c2)c(OC)c1,-9.79%
16,O=S(=O)(c1cccs1)N1CCN(CC(O)COC2CCCc3ccccc32)CC1 (stereo not shown),-25.1%
17,CN(CCOc1ccccc1Cl)Cc1ccccc1.O=C(O)C(=O)O,-15.1%
18,CCCC(=O)Nc1c(-c2ccccc2OC)c(=O)c2ccccc2n1C,-2.53%
19,Cc1ccc(CNC(=O)CCS(=O)(=O)c2ccc3nc(C)sc3c2)cc1,8.31%
20,Cc1cc(C(=O)CSc2nnc(N)s2)c(C)n1CCc1ccc(Cl)cc1,-11.9%
21,COc1cc(C(=O)OCC(=O)Nc2cc(S(=O)(=O)N3CCOCC3)ccc2C)ccc1OCC(C)C,-19.4%
22,O=S(=O)(NCC(O)c1ccccc1)c1ccc(-c2ccccn2)s1 (stereo not shown),8.65%
23,CSc1ccccc1NC(=O)c1ccc(Br)o1,-15.6%
24,COc1cccc(/C(C)=N/NC(=O)Cc2c(C)[nH][nH]c2=O)c1,4.33%
25,CC(NC(=O)COC(=O)Cc1ccc(-c2ccccc2)cc1)c1ccccc1 (stereo not shown),15.8%
26,Cn1c(CCN2CCCC2)nc2cc(NS(=O)(=O)c3ccccc3)ccc21,-40.9%
27,CCOC(=O)N1CCN(C(=O)c2ccc3c(c2)NC(=O)/C(=C\c2ccc(OC)c(OC)c2)S3)CC1,0.652%
